# Test results reported in PubChem BioAssay AID1030 (National Center for Advancing Translational Sciences (NCATS), 2008).
# Screen size: about 220,000 compounds; about 16,000 (7.3%) were called active. Inconclusive means that the source gave no clear call. Such entries were picked first, then a sample of the others. Calls come from the whole dose curve; as a rule, active = well fitted inhibition curve with a large enough effect (not every such curve was filed as active); inconclusive = small, poorly fitted or top-dose-only effect, or another doubt; inactive = no such curve, though single readings can be large or run the other way. Potencies of inconclusive entries are left out as doubtful fits.
# Target: Aldehyde dehydrogenase 1A1 (Homo sapiens) (UniProt P00352)
# Sequence of UniProt P00352 (P00352 whole entry, looked up): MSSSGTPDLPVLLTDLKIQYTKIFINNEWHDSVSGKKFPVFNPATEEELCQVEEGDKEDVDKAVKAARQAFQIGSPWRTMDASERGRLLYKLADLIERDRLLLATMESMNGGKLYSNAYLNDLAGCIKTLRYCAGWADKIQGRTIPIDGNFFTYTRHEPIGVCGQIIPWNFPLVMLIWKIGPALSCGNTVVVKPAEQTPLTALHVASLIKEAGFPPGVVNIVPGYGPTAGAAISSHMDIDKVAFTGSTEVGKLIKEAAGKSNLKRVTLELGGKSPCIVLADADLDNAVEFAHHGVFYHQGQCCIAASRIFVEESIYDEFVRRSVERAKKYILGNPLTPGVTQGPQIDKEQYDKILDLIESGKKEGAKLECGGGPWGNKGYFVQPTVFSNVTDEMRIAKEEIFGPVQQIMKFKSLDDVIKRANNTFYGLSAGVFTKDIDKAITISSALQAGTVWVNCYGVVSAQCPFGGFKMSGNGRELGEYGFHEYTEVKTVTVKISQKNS
# Assay: qHTS Assay for Inhibitors of Aldehyde Dehydrogenase 1 (ALDH1A1);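 for activity, negative = inhibition: plate controls were no enzyme wells and a reference inhibitor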
# Conditions: Purified ALDH1A1, NADH fluorescence, propionaldehyde substrate; series mostly up to 75.3 µM; activity, negative = inhibition: at the top concentration
# Potency is the fitted concentration of half-maximal effect; tags give direction and shape of the fitted curve.
SMILES,"activity, negative = inhibition",Potency
Cc1cc(Cl)cc(C)c1OCC(=O)O,inactive: 11.7%,–
Cc1ccc(CNC(=O)CCCNS(=O)(=O)c2cccc3nonc23)cc1,–,active: 7.08 µM
Cc1ccc2ccc(S(=O)(=O)n3nc(C)cc3C)cc2c1,–,active: 0.891 µM
CCn1c2ccccc2c2cc(NC(=O)COC(=O)c3cccc(S(=O)(=O)NC)c3)ccc21,inactive: -3.93%,–
O=C(Oc1ccccc1)N1CCC2(CC1)CCN(c1ccccn1)CC2,–,"inconclusive [inhibitor, single point]"
Cn1c(=O)c(/C=C/c2ccc(F)cc2)nc2ccccc21,–,"inconclusive [inhibitor, single point]"
COc1ccc(NC(=O)COC(=O)CCCN2C(=O)c3ccccc3C2=O)cc1Cl,–,"inconclusive [inhibitor, single point]"
O=C(OC(C(=O)Nc1cccc(C(F)(F)F)c1)c1ccccc1)C1CCCCC1 (configuration not stated),–,active: 14.1 µM
CN(C)/C=N/c1nc2nccc(-c3ccccn3)n2n1,–,"inconclusive [inhibitor, single point]"
O=C(Nc1nnc(C2CC2)s1)C1=NN(C2CCS(=O)(=O)C2)C(=O)CC1 (configuration not stated),–,"inconclusive [inhibitor, single point]"
Cc1ccc(-n2c(N)c(C(N)=O)sc2=S)cc1,–,active: 4.47 µM
c1ccc(-c2nc3cnccn3c2Nc2ccc3c(c2)OCCO3)cc1,inactive: -0.35%,–
CCOc1ccc(C(=S)N2CCCC2)cc1,–,"inconclusive [inhibitor, single point]"
O=C(Nc1ccc(NC(=O)c2ccco2)cc1)c1ccc2c(c1)OCO2,–,"inconclusive [inhibitor, single point]"
C/C(N)=C(/C#N)C(=O)COC(=O)C1Cc2ccccc2CN1S(C)(=O)=O (configuration not stated),–,"inconclusive [inhibitor, partial curve]"
Cc1ccc(CN2CCN(CC3CC4C=CC3C4)CC2)cc1 (configuration not stated),–,"inconclusive [inhibitor, partial curve]"
COc1ccc(-c2nn3c(-c4ccccc4)nnc3s2)cc1OC,–,active: 25.1 µM
O=C(NNC1CC(=O)N(c2ccc(Br)cc2)C1=O)c1ccccn1 (configuration not stated),inactive: -12.1%,–
CC(C)N=C=NC(C)C,inactive: -0.421%,–
O=C(CN1CCN(S(=O)(=O)c2ccc(Br)cc2)CC1)Nc1ccc2c(c1)OCO2,–,"inconclusive [inhibitor, single point]"
Cc1cc(C)n2c(SCc3cccs3)nnc2n1,–,"inconclusive [inhibitor, single point]"
COc1ccc(CCn2c(-c3ccco3)nc3nc4ccccc4nc32)cc1,–,"inconclusive [inhibitor, partial curve]"
